Reference: paper PMC4336329 (PLoS ONE, 2015)
Screen size: about 310,000 compounds; about 2,200 (0.71%) showed an effect of 50% or more. The effect is printed as a negative number. Some of the results follow.

Target: human ether-à-go-go-related gene (hERG) potassium channel (human, UniProt Q12809)
Assay: primary screen, population patch clamp on CHO cells stably expressing hERG

human ether-à-go-go-related gene (hERG) potassium channel, sequence (Q12809 whole entry, looked up): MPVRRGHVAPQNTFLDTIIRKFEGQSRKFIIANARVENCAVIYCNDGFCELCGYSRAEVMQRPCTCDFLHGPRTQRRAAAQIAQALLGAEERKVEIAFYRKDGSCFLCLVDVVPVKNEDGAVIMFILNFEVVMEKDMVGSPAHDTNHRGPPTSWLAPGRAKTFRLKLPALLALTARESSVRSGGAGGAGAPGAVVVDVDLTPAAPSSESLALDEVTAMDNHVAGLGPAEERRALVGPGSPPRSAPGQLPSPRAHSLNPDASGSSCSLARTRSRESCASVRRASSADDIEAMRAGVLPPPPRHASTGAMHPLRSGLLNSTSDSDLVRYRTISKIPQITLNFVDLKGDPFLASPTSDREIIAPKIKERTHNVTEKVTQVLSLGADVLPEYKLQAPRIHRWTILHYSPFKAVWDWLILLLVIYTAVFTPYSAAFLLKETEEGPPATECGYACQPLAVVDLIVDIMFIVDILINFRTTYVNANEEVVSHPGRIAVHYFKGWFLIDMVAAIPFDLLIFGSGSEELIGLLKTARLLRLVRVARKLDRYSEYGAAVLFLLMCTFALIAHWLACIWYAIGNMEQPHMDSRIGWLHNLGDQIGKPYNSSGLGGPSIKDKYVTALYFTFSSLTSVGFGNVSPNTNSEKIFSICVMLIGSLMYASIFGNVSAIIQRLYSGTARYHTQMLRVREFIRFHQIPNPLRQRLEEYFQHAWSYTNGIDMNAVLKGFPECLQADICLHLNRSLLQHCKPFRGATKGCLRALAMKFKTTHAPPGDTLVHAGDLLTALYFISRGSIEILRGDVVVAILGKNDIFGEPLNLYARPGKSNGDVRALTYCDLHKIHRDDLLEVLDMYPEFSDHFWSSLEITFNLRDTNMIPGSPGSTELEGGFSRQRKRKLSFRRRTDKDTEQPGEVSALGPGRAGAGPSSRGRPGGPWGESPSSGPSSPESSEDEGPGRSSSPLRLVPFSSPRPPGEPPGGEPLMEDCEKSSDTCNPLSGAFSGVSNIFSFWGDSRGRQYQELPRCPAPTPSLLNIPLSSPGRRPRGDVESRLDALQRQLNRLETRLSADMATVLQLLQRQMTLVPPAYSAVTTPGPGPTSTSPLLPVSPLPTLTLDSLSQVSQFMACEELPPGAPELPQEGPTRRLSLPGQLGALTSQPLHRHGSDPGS

SMILES	hERG current change (%, negative = inhibition) at 1uM [%]
COc1cc(/C=C(\C#N)C(=O)NCC2CCCO2)ccc1OC(C)C (stereo not drawn)	6.85
CCCCCC(=O)NC(=S)NC1C2CC3CC(C2)CC1C3 (stereo not drawn)	13.7
O=C(/C=C/c1ccco1)NCC(=O)N/N=C/c1ccccc1[N+](=O)[O-]	-8.89
Clc1ccccc1C1=Nn2c(nnc2-c2ccco2)SC1	4.48
CCOc1ccccc1NC(=S)Nc1ncccc1C	2.51
Cc1ccc(S(=O)(=O)Nc2ccc(C(=O)NCCCn3ccnc3)cc2)cc1[N+](=O)[O-]	0.434
CCOC(=O)c1cc(-c2ccc(Cl)s2)[nH]n1	22.3
COc1ccc(S(=O)(=O)/N=C2/NC(=O)/C(=C\c3ccco3)S2)cc1	6.86
COc1cc(C(c2nnnn2C(C)(C)C)N2CCN(C)CC2)cc(OC)c1OC (stereo not drawn)	5.99
O=C(NCc1ccco1)c1ccc(Cl)c(S(=O)(=O)N2CCc3ccccc32)c1	10.6
N#Cc1nc(-c2ccco2)oc1NCc1ccccc1Cl	9.84
CC(=O)c1c[nH]c(C(=O)NC2CCCCCC2)c1	5.37
O=C(CSCc1cccc(Cl)c1)NCc1ccc2c(c1)OCO2	-1.19
CCOC(=O)CCSCC(=O)Nc1cc(C)on1	2.22
O=[N+]([O-])c1ccc(N2CCc3ccccc3C2)cc1	1.78
O=C(Nc1ccccc1C(=O)NCc1ccccc1)c1ccccc1	9.01
Nc1nnc(SCc2coc(-c3ccc(Cl)cc3)n2)s1	10.8
C=C1C(=O)O[C@@H]2[C@H]1CC[C@H](C)[C@]1(O)CCC(=O)[C@@]21C	17.1
Cc1nn2c(N3CCOCC3)c3c(nc2c1-c1ccccc1)CCCC3	12.4

SMILES	hERG current change (%, negative = inhibition) at 1uM [%]
O=C(N/N=C/c1cccnc1)c1cccc(F)c1	2.08
O=c1c2[nH]c3ccccc3c2ncn1CCN1CCNCC1	6.89
CNC(=O)C(C)c1ncc(C(F)(F)F)cc1Cl (stereo not drawn)	12.6
CCc1cc(-c2n[nH]c(C)c2-c2ccccc2Cl)c(O)cc1OC	16
Cc1nnc(Cl)c2nn(-c3ccccc3F)c(C)c12	9.23
CCNS(=O)(=O)c1ccc(CCC(=O)N2CCOCC2)cc1	24.1
O=C(CSc1nnc(-c2cnccn2)n1Cc1ccco1)c1ccc(Cl)cc1	-8.23
CCCCC[C@H](O)/C=C/[C@H]1[C@H](O)CC(=O)[C@@H]1CCCCCCC(=O)O	1.21
O=C(O)CCCNc1ccc(S(=O)(=O)N2CCCCC2)cc1	6.35
COC(=O)C1=C(C)NC(C)=C(C(=O)O[C@@H]2CCCN(Cc3ccccc3)C2)[C@@H]1c1cccc([N+](=O)[O-])c1.Cl	15.5
CCn1c(SCC(=O)c2cc(OC)ccc2OC)nnc1C(C)C	11.5
COc1cccc(CCC(=O)N2CCC(n3nccc3NC(=O)CC(C)C)CC2)c1	5.01
COc1cccc(NC(=O)CSc2nnc(Cc3ccc(OC)c(OC)c3)o2)c1	11.9
O=C(NCc1ccccn1)C1CCC(=O)N1C1CCCCC1 (stereo not drawn)	6.16
NC(=O)CSc1n[nH]c(=O)n1CCc1ccccc1	10.4
CCCC(=O)N(Cc1cc(=O)[nH]c2ccccc12)c1ccccc1	4.19
CN(C)S(=O)(=O)c1ccc(C(=O)NCc2nnc(SCC(=O)c3ccccc3)o2)cc1	13.7
COCCn1c(N)c(N(Cc2ccccc2)C(=O)c2ccc3ccccc3c2)c(=O)[nH]c1=O	8.52
COC(C)(C)[C@]12CC(O)(c3ccccc3)ON1[C@H]1CCCCC1N2O (stereo partly drawn)	7.01

SMILES	hERG current change (%, negative = inhibition) at 1uM [%]
O=C(c1ccc(Cl)c(S(=O)(=O)N2CCOCC2)c1)N1CCN(c2ccccc2F)CC1	4.69
S=C(Sc1ccc(Cl)cc1)Sc1ccc(Cl)cc1	13.1
c1ccc(CSc2ccc(-c3ccccn3)nn2)cc1	6.19
COCCn1c(SCc2ccccc2)nc2c1c(=O)[nH]c(=O)n2C	11.8
C=CCn1c(COc2ccccc2F)nnc1SCC(=O)c1c[nH]c2ccccc12	7.59
O=C1/C(=C/c2cccc(Cl)c2)SC(=S)N1CCC(=O)N1CCCCC1CCO (stereo not drawn)	14
Cc1c(NC(=O)C(C)OC(=O)/C=C/c2ccco2)c(=O)n(-c2ccccc2)n1C (stereo not drawn)	11.2
COc1cc(NC(=O)CSc2nnc(-c3cc(C)on3)o2)cc(OC)c1	14.1
CN(C)CCCOc1ccc(C(C)(C)c2ccccc2)cc1.O=C(O)C(=O)O	4.27
COC(=O)c1ccc(-c2noc(CN(C)CCC3CCCCO3)n2)cc1 (stereo not drawn)	5.65
O=C(Nc1cc([N+](=O)[O-])ccc1F)c1ccc2ccccc2c1	18.2
Cc1ccccc1C(=O)NNC(=O)CSc1nnc(C)n1-c1ccccc1	11.8
COc1ccc(N(CC(=O)NCC2CCCO2)C(=O)CCC(=O)Nc2cc(C)on2)cc1OC (stereo not drawn)	18.4
CSc1ccc(/C=N/N2CCN(Cc3ccc(Cl)cc3)CC2)cc1	4.89
C[C@]12CC[C@H]3C(=CCc4cc(O)ccc43)[C@@H]1CCC2=O	14
Cc1ccccc1NC(=O)CCSc1nnnn1-c1ccccc1	9.92
Cc1cc(-c2nn(-c3ccccc3F)cc2CN2CCN(c3ccccn3)CC2)c(C)s1	10.2
CCOC(=O)C1(Cc2ccccc2)CCN(Cc2cn[nH]c2-c2ccccc2)CC1	1.58
Cc1nn(C)cc1/C=C/C(=O)c1ccccc1	-8.56
